The campaign covered roughly 310,000 compounds. About 2,200 (0.71%) showed an effect of 50% or more. Effects have a minus sign here. The list shows a part of the results.
Molecular target: human ether-à-go-go-related gene (hERG) potassium channel (human, UniProt Q12809)
Assay: primary screen, population patch clamp on CHO cells stably expressing hERG

Chain of human ether-à-go-go-related gene (hERG) potassium channel (Q12809 whole entry, looked up): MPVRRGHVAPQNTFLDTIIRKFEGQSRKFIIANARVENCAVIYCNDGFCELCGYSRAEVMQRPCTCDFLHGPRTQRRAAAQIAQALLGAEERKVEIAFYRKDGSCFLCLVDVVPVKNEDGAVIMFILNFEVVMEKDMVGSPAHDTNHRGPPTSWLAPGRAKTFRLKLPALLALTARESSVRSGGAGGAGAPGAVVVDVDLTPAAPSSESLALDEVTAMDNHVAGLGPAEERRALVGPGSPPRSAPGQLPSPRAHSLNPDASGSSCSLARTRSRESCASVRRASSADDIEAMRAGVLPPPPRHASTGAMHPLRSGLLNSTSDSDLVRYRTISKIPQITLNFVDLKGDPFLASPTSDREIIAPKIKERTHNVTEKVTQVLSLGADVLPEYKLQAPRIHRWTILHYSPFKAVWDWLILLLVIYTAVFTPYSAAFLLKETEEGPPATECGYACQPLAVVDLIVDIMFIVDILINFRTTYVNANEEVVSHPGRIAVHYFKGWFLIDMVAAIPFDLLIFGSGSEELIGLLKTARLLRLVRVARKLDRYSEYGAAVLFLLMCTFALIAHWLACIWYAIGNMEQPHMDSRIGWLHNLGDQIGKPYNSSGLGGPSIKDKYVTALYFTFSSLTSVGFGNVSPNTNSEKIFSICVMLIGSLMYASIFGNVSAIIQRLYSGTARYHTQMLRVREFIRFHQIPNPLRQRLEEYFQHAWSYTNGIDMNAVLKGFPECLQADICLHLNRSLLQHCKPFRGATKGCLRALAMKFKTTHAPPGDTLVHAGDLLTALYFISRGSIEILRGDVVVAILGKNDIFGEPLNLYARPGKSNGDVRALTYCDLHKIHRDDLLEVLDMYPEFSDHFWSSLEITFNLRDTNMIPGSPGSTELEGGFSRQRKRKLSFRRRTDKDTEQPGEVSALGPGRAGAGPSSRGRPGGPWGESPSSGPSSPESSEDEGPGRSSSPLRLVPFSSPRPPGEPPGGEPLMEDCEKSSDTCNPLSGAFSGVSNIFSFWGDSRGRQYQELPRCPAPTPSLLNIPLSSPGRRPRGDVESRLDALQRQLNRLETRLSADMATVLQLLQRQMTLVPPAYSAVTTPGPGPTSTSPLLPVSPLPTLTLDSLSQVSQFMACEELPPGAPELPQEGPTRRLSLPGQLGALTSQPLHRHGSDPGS

Compound | hERG current change (%, negative = inhibition) at 1uM
Cc1ccc2cc(C)c(SCC(=O)Nc3ccc(S(=O)(=O)N4CCCC4)cc3)nc2c1 | 22.7%
COc1ccc(CCNC(=O)/C=C/c2ccc3ccccc3n2)cc1OC | 10.9%
Cc1ccc(C)c(NC(=O)C2CC=CCC2C(=O)O)c1 (stereo not shown) | 16.6%
Cc1ccc(S(=O)(=O)N(CC(=O)N2CCC(C(N)=O)CC2)c2cccc(C(F)(F)F)c2)cc1 | 6.97%
CN(C)/C(=N\S(=O)(=O)c1ccccc1)c1ccccc1 | 10.5%
COC(=O)c1ccc(C(=O)Nc2ccc(N)cc2N)cc1 | 11.4%
CCOC(=O)CN(C(=O)CSc1nnc(CNc2ccc(C)cc2C)n1CC)c1ccccc1 | -6.78%
CC(C)N1C(=O)CSC1c1ccc(Br)cc1 (stereo not shown) | 15.4%
Cc1cccc(C2=NC(C(F)(F)F)(C(F)(F)F)c3c(n(-c4ccc(F)cc4)c(=O)[nH]c3=O)N2)c1 | 15.6%
Cc1nc2ccccc2c(=O)n1/N=C/c1cccnc1 | 16%
CC(C)c1ccc(NC(=O)C(=O)C2C(=O)Nc3ccccc32)cc1 (stereo not shown) | -0.533%
O=C(O)c1ccc(-n2cncn2)c([N+](=O)[O-])c1 | 7.34%
CS(=O)(=O)N(CC(=O)NCc1ccco1)c1ccc(Cl)cc1Cl | 17.5%
COCCCn1c(C2CCCCC2)nc2oc3cc(OC)ccc3c(=O)c2c1=O | 6.18%
CC(C)(C)SCCNC(=O)Nc1ccccc1 | 6.31%
COc1ccc([C@@H]2[C@@H](C(=O)C(C)(C)C)N3N=Cc4ccccc4[C@@H]3C23C(=O)OC(C)(C)OC3=O)cc1OC | -5.04%
Cc1ccc(N(CC(=O)NC(C)(C)C)C(=O)CCC(=O)Nc2nccs2)c(C)c1 | 11.4%
COc1cc(OC)cc(N(C(=O)c2ccco2)C(C(=O)NC2CCCC2)c2ccc(N(C)C)cc2)c1 (stereo not shown) | 4.12%
C/C(=N\NC(=O)c1cccc(S(=O)(=O)N2CCOCC2)c1)c1ccc(C)cc1 | 7.97%
[N-]=[N+]=N[C@@H](CCN1CC[C@H](O)CCC1=O)c1ccccc1 | 9.49%
Clc1ccc(OCc2nn[nH]n2)cc1 | 13.7%
CCN(CC)C(=O)Cn1cc(C(=O)C(=O)N2CC=C(c3ccccc3)CC2)c2ccccc21 | 7.11%
Cn1c(SCC(N)=O)nnc1C1CCN(S(=O)(=O)c2ccccc2C(F)(F)F)CC1 | 16.3%
CCCOc1ccc(C(=O)CCC(=O)OCC(=O)N2CC(=O)Nc3ccccc32)cc1 | 16.6%
Cc1ccc(N2CC(C(=O)Nc3cc(C(F)(F)F)ccc3N3CCCC3)CC2=O)cc1 (stereo not shown) | -3.44%
COc1ccc(Cl)cc1S(=O)(=O)N1CCC(C(=O)NCc2ccccn2)CC1 | 1.33%

Compound | hERG current change (%, negative = inhibition) at 1uM
Cc1ccc(NC(=O)CN(C)C(=O)c2ccc(COc3ccccc3)cc2)cc1 | 10.8%
COc1ccc2c(c1)[nH]c1c(=O)n(/N=C/C3C(C)C=C(C)CC3C)c(=O)[nH]c12 (stereo not shown) | 17.2%
CC1CCCCN1CCCNc1ccc(C(CC(N)=O)NC(=O)Cc2ccc(Cl)cc2)cc1[N+](=O)[O-] (stereo not shown) | -6.77%
O=C(Nc1ccc(NS(=O)(=O)c2ccc([N+](=O)[O-])cc2)cc1)c1ccco1 | 10.6%
O=C(C1CCC1)N1CCc2cc(S(=O)(=O)NCc3cccnc3)ccc21 | 6.41%
Cc1ccc(NC(=O)NNC(=O)Cn2nc(-c3ccccc3)c(-c3ccccc3)c(C#N)c2=O)cc1 | 1.46%
CCOc1ccc(S(=O)(=O)N2CCN(c3ccc(C)cc3C)CC2)cc1 | 2.67%
Cc1nn(CC(=O)NCCc2ccc(Cl)cc2Cl)c(C)c1[N+](=O)[O-] | 15.1%
CCOc1ccc(/C=C/C(=O)C(C(N)=O)=C2SCCS2)cc1 | 14.3%
CCO[C@@H]1OC(C(=O)NC2CC2)=C[C@H](C2CCCCC2)[C@H]1CCCO | -1.03%
O=C1NN(c2ccc(Br)cc2)C(=O)/C1=C\c1ccc(O)cc1O | 18.8%
CC(=O)N1C(O)CC(C)N1c1ccccc1 (stereo not shown) | 16.5%
CN(C(=O)c1ccc(NC(=O)Cc2cccc(NC(=O)C3CCN(C(=O)C4CCC4)CC3)c2)cc1)C1CCCC1 | 13.2%
COc1ccc(-c2cc(-c3cc(F)ccc3O)[nH]n2)cc1OC | 2.06%
O=[N+]([O-])c1cc(S(=O)(=O)N2CCCC2)ccc1NN=C1CCCC1 | 6.85%
O=C(Nc1ccccc1SCC1CSc2nc3ccccc3c(=O)n21)c1ccccc1 (stereo not shown) | -24.7%
Clc1cc(Cl)cc(C2=NC(Cc3ccccc3)CO2)c1 (stereo not shown) | 17.3%
O=C(NCCOCc1ccccc1)C(c1ccccc1)c1ccccc1 | 2.92%
CS(=O)(=O)Cc1ccc(C(=O)NC2CCSc3ccccc32)cc1 (stereo not shown) | -1.68%
COc1ccc(C)cc1NC(=O)CSc1ccc(-c2sc(C)nc2C)nn1 | 5.92%
Cc1c(N/C(=N/S(=O)(=O)c2ccc(F)cc2)c2ccccc2)c(=O)n(-c2ccccc2)n1C | 14.3%
O=C(NC1CCCC1)c1ccc(CS(=O)(=O)c2cccc(C(F)(F)F)c2)o1 | 4.26%
Cc1c(NS(=O)(=O)c2ccc3c(c2)n(C)c(=O)n3C)c(=O)n(-c2ccccc2)n1C | 6.72%
Cc1ccn(CC(=O)O)c(=O)c1 | -5.52%
Cc1ccc(C)c(S(=O)(=O)N/N=C/c2ccc(N3CCOCC3)cc2)c1 | 16.9%
COc1cc(OC)cc(C(=O)NNC(=O)CN2C(=O)NC(C)(c3ccccc3)C2=O)c1 (stereo not shown) | 21.7%
